Experimental data: paper PMC6212790
Some of the results follow. At the low end of the ranking, values are background and their order means little.

Each sequence was assayed against T1, GST-Rok (full length) (UniProt O34857) (assay: protein binding microarray). Conditions: Rok is a gene silencer of Bacillus subtilis; high values mean tight binding; most listed sequences are background and not binding sites; double strand, one strand shown.
T1 sequence: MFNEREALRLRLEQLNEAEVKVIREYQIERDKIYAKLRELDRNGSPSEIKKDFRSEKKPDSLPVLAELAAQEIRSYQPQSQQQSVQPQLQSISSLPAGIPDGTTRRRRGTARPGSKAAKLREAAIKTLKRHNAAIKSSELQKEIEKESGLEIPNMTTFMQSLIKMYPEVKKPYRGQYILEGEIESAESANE
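Also: rank score from −0.5 (least bound) to 0.5 (best bound).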

Row | Sequence | binding signal [E-score]
1 | GACAAACC | 0.0214
2 | TGATACCA | 0.183
3 | CATCATTC | -0.105
4 | GACTGTAA | -0.0385
5 | AGCTGTAC | 0.0948
6 | CCGACCAG | -0.273
7 | GCTTTGAA | 0.00953
8 | AACGACGT | 0.0544
9 | GTGCGCAC | 0.201
10 | CAGAGGGC | -0.261
11 | TATGGGGA | -0.235
12 | CCGCGGGA | -0.175
13 | AATTCTCT | 0.12
14 | ATCGCCTC | -0.0171
15 | GCATGAAC | -0.0782
16 | CGTGTCTA | 0.213
17 | CTAAGGCC | -0.158
18 | CGTCAGCA | -0.192
19 | AAAACTGA | 0.0676
20 | ACGGTCCG | -0.287
21 | ATGCTTCC | -0.335
22 | AAGACCGC | -0.197
23 | GCTAAAAA | 0.0922
24 | GAGCAGCC | -0.306
25 | AGCGATCC | -0.305

Row | Sequence | binding signal [E-score]
26 | ATATAACC | 0.224
27 | CTGTAAAC | 0.0967
28 | CCCGGATC | -0.252
29 | AGAGTAAA | 0.18
30 | ATAGATCC | 0.234
31 | CGTTATAG | 0.0316
32 | GACCACAC | -0.0733
33 | GTGGTTGA | 0.0508
34 | GGTACCAA | 0.233
35 | CAAATGTA | 0.289
36 | CAAAGCTC | -0.0842
37 | CAACCAGG | -0.27
38 | CTCTCCCA | -0.272
39 | ACCGATAT | 0.338
40 | CCAGAAGA | -0.12
41 | AGTGGCAG | -0.029
42 | GAGGGTAA | 0.0972
43 | CTGCGAGA | -0.11
44 | GGGAGTAC | -0.259
45 | CATTGCCC | -0.0965
46 | GTTTCCGA | -0.0265
47 | CTTCACGC | -0.281
48 | CCTTTCCA | -0.177
49 | CAGACAGC | -0.095
50 | CAATATTC | 0.21

Row | Sequence | binding signal [E-score]
51 | CCACTAAA | 0.0654
52 | CATGTTGC | -0.0145
53 | CAGGGGGG | -0.383
54 | GGGGTGGA | -0.361
55 | ACCCACTG | -0.1
56 | CACATCCC | -0.146
57 | ATCCCGCG | -0.00592
58 | GTGAGTCA | -0.204
59 | ACGCCTGA | -0.0421
60 | ATCAGTAC | 0.085
61 | AGCAGTTA | 0.00652
62 | ATTATGAC | 0.0547
63 | ATGAACCA | -0.0368
64 | ATATAAAG | 0.17
65 | AAATGACT | 0.138
66 | AAACATCT | 0.0882
67 | ATTGATTA | 0.238
68 | GAAGCCCA | -0.377
69 | AACGTCGC | 0.134
70 | AGTCGAAG | -0.0264
71 | GACTTTCC | -0.0947
72 | GGAAGTGA | -0.249
73 | CGGCCAAG | -0.205
74 | GTCAAAGA | 0.00723
75 | CTCGTAAG | 0.0913

Row | Sequence | binding signal [E-score]
76 | ACCCAAAC | 0.0222
77 | CGCAATTA | 0.0544
78 | TGGACCCA | -0.244
79 | ATGCCCAT | -0.164
80 | CAGCTTGG | -0.178
81 | TGGTGACA | 0.0376
82 | TATAGTAA | 0.389
83 | CAGCGAGA | -0.121
84 | ACAATAAG | 0.0497
85 | AGATTTAT | 0.174
86 | AAAATGAA | -0.0184
87 | ACAGACTG | -0.268
88 | AACCCTTA | -0.115
89 | GCTCTCAC | -0.295
90 | GACCGCTC | -0.154
91 | CTACCGCC | 0.0536
92 | AATTGTTA | 0.308
93 | TTAAGTAA | 0.255
94 | CATACAGC | -0.16
95 | CAACGGGC | -0.269
96 | AAGGGTGA | -0.268
97 | AAAGCAAA | 0.0849
98 | AAATACCG | 0.333
99 | ATAACATA | 0.365
100 | ATATGGTG | 0.0966

Row | Sequence | binding signal [E-score]
101 | TTCGTAAA | 0.145
102 | AGCCTTTG | -0.148
103 | ATGTTAAA | 0.185
104 | ATCAGTGC | 0.00437
105 | TATCAATA | 0.343
106 | ATCGGGAG | 0.0139
107 | CCTGGAAA | -0.077
108 | AACGATGG | 0.125
109 | GTGCACTA | 0.131
110 | GTGACAGA | -0.439
111 | ATCCAGAG | -0.133
112 | GTAACTAC | 0.394
113 | CATCCGGC | -0.275
114 | CCGAGGCC | -0.193
115 | GCGCAGAC | -0.232
116 | CTTGACGC | -0.252
117 | GAATATTA | 0.0406
118 | AAAAGGCT | -0.189
119 | ATATACTA | 0.409
120 | AAATCTCA | 0.0339
121 | CATAAACA | 0.159
122 | CTGGAGGC | -0.152
123 | AGTCAAAT | -0.0451
124 | ATTGTGTG | 0.103
125 | CCTGAATC | -0.225

Row | Sequence | binding signal [E-score]
126 | GAGGTCTA | -0.168
127 | ACCTGGAA | 0.0618
128 | GTGCCCGA | -0.167
129 | ATGTCCGG | -0.00967
130 | AGCATAAA | 0.211
131 | CAGGGCCG | -0.319
132 | AGGCCAAG | -0.151
133 | CCTGACTC | -0.309
134 | CCGAGGAA | -0.198
135 | CGTGGCAG | -0.241
136 | GGTCGTAC | -0.00438
137 | CAATAGAC | 0.089
138 | ACATGTGG | 0.0813
139 | GCTCTACC | 0.0868
140 | TAAGCTAA | 0.0385
141 | ATGCTACA | 0.184
142 | GAAATAAA | 0.221
143 | ATAGCTGC | 0.0654
144 | AACGTCTT | -0.0871
145 | CTACGTTC | 0.00208
146 | ACGGTCTG | -0.0535
147 | GATGCGAA | -0.102
148 | CGACGTAA | 0.153
149 | AAAAGGAC | -0.19
150 | CAACACCC | -0.168

Row | Sequence | binding signal [E-score]
151 | ATCTGGTC | -0.135
152 | GAAGCTCC | -0.26
153 | ATTAAAAA | -0.0974
154 | ATTGTGGA | 0.0456
155 | TAGTGAGA | 0.0866
156 | ATCTTAAA | 0.0772
157 | CTATAGAC | 0.152
158 | CCACGCAC | -0.277
159 | GCACGACC | -0.0837
160 | ACAACAAT | 0.203
161 | GGGTGCAA | 0.0782
162 | AGGTAATG | 0.206
163 | CTAGTCTC | 0.0165
164 | GCGGGGGA | -0.288
165 | ATAGTCGC | 0.0388
166 | TCGGTTCA | -0.248
167 | CTCAGATA | 0.0362
168 | TATTCTCA | 0.0885
169 | CGTAGCGA | 0.0631
170 | GTACTAGA | 0.29
171 | CATCGCGG | -0.0129
172 | AACGCCGG | -0.187
173 | TCTACCCA | 0.264
174 | ACTATCTC | 0.128
175 | GATTCTAC | 0.393

Row | Sequence | binding signal [E-score]
176 | GACTGTCA | -0.0917
177 | GCGGGCCC | -0.419
178 | CTGCATCA | -0.0198
179 | ACTTACAG | -0.0639
180 | ATACGAGC | 0.0276
181 | ACCATACC | 0.107
182 | AGCTATTA | 0.283
183 | ATCCGCGG | -0.227
184 | AACATACG | 0.205
185 | CAACCGTA | 0.00203
186 | CCCTTGAG | -0.161
187 | GGAGTGAC | -0.203
188 | ATTGGACC | -0.304
189 | GGACTAAC | 0.00668
190 | GCCCTGAA | -0.222
191 | CCTTAAGC | -0.334
192 | GCCAATCC | -0.218
193 | AAAATAAA | 0.199
194 | GCATTGCA | 0.0318
195 | CGTTATAC | 0.169
196 | GTTGCGAA | -0.0232
197 | ACCGCAAT | 0.0964
198 | CAAGCTTA | 0.0259
199 | GATGGAAC | -0.124
200 | CGTGGGCC | -0.305

Row | Sequence | binding signal [E-score]
201 | AAACTACT | 0.484
202 | AGCGTGAT | 0.0986
203 | AGAGGTTA | -0.129
204 | CTAGCGCA | 0.0524
205 | AACGATCG | -0.0101
206 | AGCTGCCC | -0.203
207 | CATATATC | 0.25
208 | AGTTTCCG | 0.198
209 | ACATTATG | 0.228
210 | AAATTATT | 0.296
211 | CAAATATG | 0.194
212 | CTCAACTA | 0.13
213 | TAAGTACA | 0.227
214 | CAGCTGAA | -0.0939
215 | TTAAACAA | -0.0973
216 | CGTAAGTC | -0.0903
217 | CCAGGAAG | -0.0422
218 | GAAACCGC | -0.174
219 | AGCGACGC | -0.14
